Reference: PubChem BioAssay (NCATS)
“And” between values parts separate entries of the source, which are not always exact repeats. Equal entries are not always repeated. The inconclusive results got no clear call from the source; some entries with a clear call stand among them for comparison. Potencies beside an inconclusive call are fits to weak or partial responses and may not hold up. The source made the active and inactive calls. The call rests on the fitted dose curve; in most records, active means well fitted inhibition curve with a large enough effect; inconclusive means small, poorly fitted or top-dose-only effect; inactive means flat fitted curve, though single readings scatter.

test: P-glycoprotein substrates identified in KB-8-5-11 adenocarcinoma cell line, qHTS therapeutic library screen (AID 1346987); conditions: KB-8-5-11 (P-gp overexpressing) viability, CellTiter-Glo, 72 h; series mostly up to 44.5 µM; further: nearly all actives have a fitted effect of over 65% in size
In short: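 Luminescence from CellTiter-Glo, read 5 min after addition, quantified survival of KB-8-5-11 (P-gp-overexpressing) cells exposed to compounds for 72 h. AC50 was derived from concentration-response curves.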
Potency means the concentration at half of the fitted maximal effect; tags describe the fitted curve by direction and shape.

Row | Structure (SMILES) | Potency | outcome
1 | CC(=O)NC1=NN(C(C)=O)C(C)(c2ccccc2)S1 (stereo not drawn) | active: 5.8 µM | 
2 | CNC(=O)c1cccc(-c2ccc3c(N4CCOC[C@@H]4C)nc(N4CCOC[C@@H]4C)nc3n2)c1 | active: 366 nM and active: 580 nM | 
3 | CC(CCC1(O)OC2CC3C4CC=C5CC(O[C@@H]6O[C@H](CO)[C@@H](O[C@@H]7O[C@@H](C)[C@H](O)[C@@H](O)[C@H]7O)[C@H](O)[C@H]6O[C@@H]6O[C@@H](C)[C@H](O)[C@@H](O)[C@H]6O)CCC5(C)C4CCC3(C)C2C1C)CO[C@@H]1O[C@H](CO)[C@@H](O)[C@H](O)[C@H]1O (stereo partly drawn) | inconclusive: 4.91 µM [inhibitor, single point] | 
4 | COc1ccnc(CS(=O)c2nc3cc(OC(F)F)ccc3[nH]2)c1OC (stereo not drawn) | inconclusive: 18.4 µM [inhibitor, partial curve] | 
5 | Nc1cccc(CNC(=O)c2ccc(Oc3ccc(OCc4cccc(F)c4)cc3)nc2)c1 | inconclusive: 16.4 µM [inhibitor, partial curve] | 
6 | C=C1C(=O)O[C@H]2/C=C(/C)[C@@H](OC(C)=O)C/C=C(\C)C[C@@H](OC(=O)/C(=C/C)COC(=O)/C(=C/C)CO)[C@@H]12 | inconclusive: 7.96 µM [inhibitor, single point] | 
7 | O=C(/C=C/c1ccc(O)c(O)c1)O[C@H]1[C@H](OC2CCCCC2O)O[C@H](CO)[C@@H](O)[C@@H]1O (stereo partly drawn) |  | inactive [at 17.3 µM]
8 | Cc1ccccc1-n1c([C@H](C)Nc2nc(N)nc3nc[nH]c23)nc2cccc(C)c2c1=O | inconclusive: 29.1 µM [inhibitor, single point] | 
